According to patent publication US10745735B2 (priority 2013, dated 2020):

Key:
BL21 E. coli = tested on: BL21 E. coli
Excerpt: LPS were extracted after culture in the presence or absence of KDO or KDO-azide overnight, and fluorescence labeling by Alexa-alkyne was detected by SDS-PAGE. LPS silver stain is shown above and in-gel fluorescence is shown below.
FIG. 7C: Unnatural sugar incorporation and fluorescence labeling of BL21 E. coli after culture for five hours in phosphate-buffered saline in the presence of KDO or KDO-alkyne and reaction with Alexa488-azide.
Fluorescent signal was detected above background for bacteria cultured in the presence of functionalized KDO.

gram negative bacteria = details: Dumont 2012; cited from earlier work

## CC1(COC(=O)NC[C@@H](O)C2OC(O)(C(=O)O)C[C@@H](O)[C@H]2O)CCC=[N+]1[O-] (stereo partly shown) [KDO-nitrone]
BL21 E. coli
  incorporation into E. coli LPS molecules: shown to be incorporated into E. coli LPS molecules

## C#CCCC(N)C(=O)O (stereo not shown) [HPG, homopropargylglycine]
BL21 E. coli cells
  contact time after which incorporation of HPG into expressed/surface protein is detected: 30 min
BL21 E. coli cells; HPG 50 μg/ml, M9 media, methionine biosynthesis inhibited, 37° C.
  contact time after which incorporation of HPG into expressed/surface protein is detected: thirty

## [N-]=[N+]=NC[C@@H](O)C1OC(O)(C(=O)O)C[C@@H](O)[C@H]1O (stereo partly shown) [KDO-azide]
BL21 E. coli
  incorporation into E. coli LPS molecules: confirming KDO-azide incorporation into LPS molecules
Gram negative bacteria
  incorporation into LPS molecules of outer membrane: shown to be incorporated into the LPS molecules

## C#CCCC(=O)NC[C@@H](O)C1OC(O)(C(=O)O)C[C@@H](O)[C@H]1O (stereo partly shown) [KDO-alkyne]
BL21 E. coli
  incorporation / fluorescent signal after 5 h culture: incorporated KDO-alkyne while suspended in PBS
  incorporation into E. coli LPS molecules: shown to be incorporated into E. coli LPS molecules

Where two headings read alike, the source gives them in different places.
